{"source": "PubChem BioAssay AID2546", "about": "(National Center for Advancing Translational Sciences (NCATS), 2010)", "note": "Several values for one entry are separate records, joined by “and”; a condition that tells them apart may be missing. Equal values may be shown once. Screen size: about 310,000 compounds; about 11,000 (3.5%) were called active. This list was built around the results that the source calls inconclusive (neither active nor inactive); the mix of calls is not that of the screen. Calls follow the shape of the dose curve; as a rule, active = well fitted inhibition curve with a large enough effect; inconclusive = small, poorly fitted or top-dose-only effect, or effect the other way; inactive = flat fitted curve, though single readings scatter. A potency beside an inconclusive call is a rough fit, not a confirmed value. % is scaled to controls: 0 for no effect and ±100 for the full control effect; potency is read from the fitted curve at half-maximal effect; tags tell the direction and shape of the fitted curve.", "data": [{"experiment": "VP16 counterscreen qHTS for inhibitors of ROR gamma transcriptional activity;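 also: Gal4-VP16 expression switched on by copper sulfate through the metallothionein promoter; nearly all actives have a fitted effect of over 50% in size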", "settings": "Drosophila S2 Gal4-VP16 UAS-luciferase, luminescence, 20 h; activity, negative = inhibition: at 53.6 µM (top of the series)", "values": [{"compound": "Cc1cc(C)c(NC(=O)c2cc(=O)c3ccccc3o2)c(C)c1", "Potency": "inconclusive: 35.5 µM [inhibitor, single point]"}, {"compound": "C=CCOc1c(CNc2cccc(C(=O)O)c2)cccc1OC", "Potency": "inconclusive: 35.5 µM [inhibitor, single point]"}, {"compound": "CC(C)[C@H]1COC(c2cc(Cl)cc(Cl)c2)=N1", "Potency": "inactive"}, {"compound": "COc1cccc(/C=N/Nc2nn3cnnc3c3ccccc23)c1O", "Potency": "active: 2.82 µM"}, {"compound": "O=C(COC(=O)CC1CC2CCC1C2)Nc1cccc(S(=O)(=O)NC2=NCCCCC2)c1", "note": "(stereo not given)", "Potency": "inactive"}, {"compound": "CCC(CC)=N/N=C/c1c(O)n(CC)c2cc(C3=NNC(=O)CC3)ccc12", "Potency": "inconclusive: 35.5 µM [inhibitor, single point]"}, {"compound": "O=C1C2CC=CCC2C(=O)N1c1ccc(NCCc2ccc(O)cc2)c([N+](=O)[O-])c1", "note": "(stereo not given)", "Potency": "inconclusive: 35.5 µM [inhibitor, single point]"}, {"compound": "CCOc1ccc(Oc2c(/C=N/NC(C)=O)c(C)nn2-c2ccccc2)cc1", "Potency": "inactive"}, {"compound": "CCOc1ccccc1N(CC(=O)N1CCCC1)S(C)(=O)=O", "Potency": "inactive"}, {"compound": "Cc1nnc(NC(=O)CCS(=O)(=O)Cc2ccccc2)s1", "Potency": "inactive"}, {"compound": "O=C(c1ccc(S(=O)(=O)N2CCOCC2)cc1)N1CCN(c2cccc(Cl)c2)CC1", "Potency": "inconclusive: 14.1 µM [inhibitor, partial curve]"}, {"compound": "S=C1NC[C@H](Cc2ccccc2)N1CCCCC1CCCCC1", "Potency": "active: 5.01 µM"}, {"compound": "C=CCNC(=S)NNC(=O)c1ccc(Br)cc1", "Potency": "inconclusive: 15.8 µM [inhibitor, single point]"}, {"compound": "CC#CC[N+](C)(CC#CC)CC(=O)c1ccccc1", "Potency": "inactive"}, {"compound": "Cc1cc(-c2n[nH]c(=S)n2-c2ccccc2C)cs1", "Potency": "active: 6.31 µM"}, {"compound": "CCNc1nc(SCCOc2ccc(Br)cc2)nc(N(C)C)n1", "Potency": "inconclusive: 35.5 µM [inhibitor, single point]"}, {"compound": "C=CCN(CC=C)S(=O)(=O)c1ccc(NC(=S)NC(=O)c2ccco2)cc1", "Potency": "inconclusive: 35.5 µM [inhibitor, single point]"}, {"compound": "CCCOc1ccc(-c2nnc(-c3ccco3)o2)cc1", "Potency": "inconclusive: 2.82 µM [inhibitor, full curve]"}, {"compound": "Cc1ccc(-c2cc(C(=O)N/N=C/C=C/c3ccccc3)n[nH]2)s1", "Potency": "active: 7.08 µM"}, {"compound": "S=C(NCc1ccc2[nH]c3c(c2c1)CCCC3)Nc1ccccc1Cl", "Potency": "active: 8.91 µM"}, {"compound": "O=C(N/N=C/C(Cl)=C/c1ccccc1)c1ccccn1", "Potency": "inconclusive: 25.1 µM [inhibitor, single point]"}, {"compound": "Cc1ccccc1C(=O)NNC(=S)NC(=O)c1cccs1", "Potency": "active: 12.6 µM"}, {"compound": "CCCCOCCOCCOCc1cc2c(cc1CCC)OCO2", "Potency": "inactive"}, {"compound": "COc1ccc(C)cc1-n1nnnc1SCC1CCCO1", "note": "(stereo not given)", "Potency": "inactive"}, {"compound": "Cc1ccccc1-n1nc(CSc2nc3ccccc3[nH]2)c(-c2ccccc2)c1N", "Potency": "inconclusive: 35.5 µM [inhibitor, single point]"}, {"compound": "O=C1C(CCCNC(=S)NCc2ccccc2)NC(=S)N1Cc1ccccc1", "note": "(stereo not given)", "Potency": "inconclusive: 20 µM [inhibitor, single point]"}, {"compound": "O=c1cc(-c2ccccc2)oc2c(O)c(O)ccc12", "Potency": "inconclusive: 35.5 µM [inhibitor, single point]"}, {"compound": "CCOC(=O)C1CCCN(C(=O)c2ccc(Cl)cc2)C1", "note": "(stereo not given)", "Potency": "inconclusive: 22.4 µM [activator, single point]"}, {"compound": "Cc1ccc(S(=O)(=O)N2CCCOC2CNC(=O)C(=O)NCCC2=CCCCC2)cc1", "note": "(stereo not given)", "Potency": "inconclusive: 17.8 µM [inhibitor, partial curve]"}, {"compound": "O=C(N/N=C1/CC2CCC1C2)c1cc2ccccc2cc1O", "note": "(stereo not given)", "Potency": "active: 0.794 µM"}, {"compound": "COC(=O)NCc1ccc2c(c1)OCO2", "Potency": "inactive"}, {"compound": "C[C@@H]1C=C[C@](Cc2ccccc2)(C(=O)NCC2CC2)N1C(=O)c1ccccc1", "Potency": "inactive and inconclusive: 5.62 µM [activator, partial curve]"}, {"compound": "O=C1N/C(=N/N=C/c2ccco2)SC1Cc1ccccc1", "note": "(stereo not given)", "Potency": "active: 2.51 µM"}, {"compound": "CC(/C=N\\NC(=O)c1cc(C)oc1C)=C\\c1ccccc1", "Potency": "inconclusive: 15.8 µM [inhibitor, single point]"}, {"compound": "CN(CCc1ccccn1)C1CC(=O)N(c2ccc(Cl)cc2)C1=O", "note": "(stereo not given)", "Potency": "inconclusive: 35.5 µM [inhibitor, single point]"}, {"compound": "O=C(OC(c1ccccc1)c1nccc2ccccc12)c1cccc([N+](=O)[O-])c1", "note": "(stereo not given)", "Potency": "inconclusive: 1.12 µM [activator, full curve, poor fit]"}, {"compound": "Cc1nnc(NC(=O)c2ccc3ccccc3c2)o1", "Potency": "active: 0.316 µM"}, {"compound": "Cc1ccccc1C(=O)Nc1ccc(C(=O)NNC(=O)CCCOc2ccc(Cl)cc2Cl)cc1", "Potency": "inconclusive: 31.6 µM [inhibitor, single point]"}, {"compound": "O=C(Nc1ccccn1)Nc1ccccc1Cl", "Potency": "inconclusive: 3.16 µM [activator, full curve, poor fit]"}, {"compound": "Cc1ccccc1-c1nc(CS(=O)CC(=O)NC2CCCCC2)c(C)o1", "note": "(stereo not given)", "Potency": "inactive"}, {"compound": "Cn1cccc1Cc1nnc(SCC(=O)Nc2nccs2)n1CCc1ccccc1", "Potency": "inconclusive: 28.2 µM [inhibitor, single point]"}, {"compound": "COc1cc(CNCCSc2nnnn2C)cc(Br)c1OCc1ccc(F)cc1", "Potency": "inconclusive: 35.5 µM [inhibitor, single point]"}, {"compound": "COc1ccc2c(c1)c(C(=O)N/N=C/c1cccs1)c(C)n2C", "Potency": "inconclusive: 28.2 µM [inhibitor, single point]"}, {"compound": "COc1ccc([C@@H]2CC(=O)c3c(O)cc(O)cc3O2)cc1O", "Potency": "inconclusive: 6.31 µM [activator, full curve, poor fit]"}, {"compound": "O=C1CC(C(=O)N(c2cccc(F)c2)C(C(=O)NC2CCCC2)c2ccccn2)CS1", "note": "(stereo not given)", "Potency": "inactive"}, {"compound": "CCOc1cc(-c2nc(C)c(C(C)=O)n2O)ccc1OCC(=O)Nc1cccc(C)c1", "Potency": "inactive"}, {"compound": "O=C(c1ccc(S(=O)(=O)c2ccccc2Cl)c([N+](=O)[O-])c1)N1CCCCCC1", "Potency": "inconclusive: 35.5 µM [inhibitor, single point]"}, {"compound": "COc1ccccc1CNC(=O)C1CCN(S(=O)(=O)c2ccc3c(c2)C(C)(C)C(=O)N3C)CC1", "Potency": "inactive"}, {"compound": "CCCOC(=O)c1ccccc1", "Potency": "inactive"}, {"compound": "COc1cccc(CN(C)C(=O)c2cc(COc3ccc4ncccc4c3)on2)c1", "Potency": "active: 6.31 µM"}, {"compound": "O=C1[C@H]2[C@@H](/C=C/c3ccccc3)N3C(=O)CN(Cc4ccccn4)C(=O)[C@@]3(Cc3ccccc3)[C@H]2C(=O)N1c1ccccc1", "Potency": "inactive"}, {"compound": "CN(c1ccccc1)S(=O)(=O)c1ccc(C(=O)Nc2nnc(-c3ccc(F)cc3)o2)cc1", "Potency": "active: 1.58 µM"}, {"compound": "Nc1cc(S(=O)(=O)N2CCCCC2)ccc1Oc1ccc(Cl)cc1", "Potency": "inactive"}, {"compound": "C=CCn1c(C(CCCC)CC(O)COCC(C)C)n[nH]c1=S", "note": "(stereo not given)", "Potency": "inconclusive: 35.5 µM [inhibitor, single point]"}, {"compound": "Cc1ccc(Cl)cc1NC(=O)c1ccccn1", "Potency": "inconclusive: 17.8 µM [activator, single point]"}, {"compound": "CCOc1ccc(NC(=S)Nc2ccc(Br)cc2Cl)cc1", "activity, negative = inhibition": "inconclusive: -30.3% [inhibitor]"}, {"compound": "COc1cccc(-c2nnc(NC(=O)c3ccc(S(=O)(=O)N(CC(C)C)CC(C)C)cc3)o2)c1", "Potency": "active: 0.355 µM"}, {"compound": "COc1cccc(-c2nnc(Nc3nc4c(F)cccc4s3)o2)c1", "Potency": "active: 3.55 µM"}, {"compound": "CC(=O)Oc1cc2c(cc1Cl)C1(CC(c3ccccc3Cl)O2)CC(C)(C)NC(=S)N1", "note": "(stereo not given)", "Potency": "inconclusive: 20 µM [inhibitor, single point]"}, {"compound": "CC(=O)Nc1ccc(NC(=O)COC(=O)/C(=C/c2ccccc2)n2nnnc2C)cc1", "Potency": "inconclusive: 25.1 µM [inhibitor, single point]"}, {"compound": "COc1ccc(-c2cc(C(=O)O)c(C)o2)cc1OC", "Potency": "active: 0.891 µM"}, {"compound": "NS(=O)(=O)c1ccc(NC(=S)NC(=O)c2ccc3c(c2)OCO3)cc1", "Potency": "inconclusive: 5.62 µM [activator, single point]"}, {"compound": "c1ccc(CNc2ncnc3sccc23)cc1", "Potency": "active: 17.8 µM"}, {"compound": "CCCCCC1CCC(C(=O)NNC(=S)NCC)CC1", "note": "(stereo not given)", "Potency": "inconclusive: 12.6 µM [inhibitor, single point]"}, {"compound": "C=CCn1c(=S)[nH]c2cc(-c3ccccc3)sc2c1=O", "Potency": "active: 2 µM"}, {"compound": "O=C(NCc1ccc(Cl)cc1)c1ccc2ccccc2n1", "Potency": "inconclusive: 31.6 µM [activator, single point]"}, {"compound": "Cc1cc(C)c(C(CC(=O)c2cccs2)C(C#N)C#N)c(C)c1", "note": "(stereo not given)", "Potency": "inconclusive: 35.5 µM [inhibitor, single point]"}, {"compound": "Cc1csc(SCc2nnc(-c3ccc(Cl)cc3)o2)n1", "Potency": "inconclusive: 0.501 µM [activator, full curve]"}, {"compound": "O=C(Nc1cnn(Cc2c(Cl)cccc2Cl)c1)c1ccc([N+](=O)[O-])cc1", "Potency": "inconclusive: 3.55 µM [inhibitor, full curve]"}, {"compound": "COc1ccc2c(c1OC)C(=O)N(c1ccc(C)cc1)C2", "Potency": "inconclusive: 28.2 µM [inhibitor, single point]"}, {"compound": "CC1=C(C)C(=O)C(N2CCOCC2)=CC1=O", "Potency": "inconclusive: 22.4 µM [inhibitor, single point]"}, {"compound": "Cc1ccc(-c2csc3ncnc(NCCN4CCOCC4)c23)cc1", "Potency": "inconclusive: 35.5 µM [inhibitor, single point]"}, {"compound": "Cc1ccc(-n2cc(-c3ccccc3)c3c(NN4CCOCC4)ncnc32)cc1", "Potency": "inconclusive: 6.31 µM [inhibitor, single point]"}, {"compound": "COc1cc(/C=N/n2c(C)n[nH]c2=S)ccc1OCc1ccccc1", "Potency": "inconclusive: 8.91 µM [inhibitor, partial curve]"}, {"compound": "COc1cccc(CCC(=O)N2CCC(n3nccc3NC(=O)C3CCOC3)CC2)c1", "note": "(stereo not given)", "Potency": "inconclusive: 6.31 µM [inhibitor, partial curve]"}]}]}
